Whole data set: some 33,000 sequences, median “E-score (-0.5 to 0.5)” near -0.053, cut for the highest 2% near 0.37. The list shows a part of the results.
Biological target: Hap1 (UniProt P0CE41)
Experiment: PBM E-score (8-mer binding enrichment) (E-score (-0.5 to 0.5)); higher = stronger / more preferred TF binding; most listed sequences are background and not binding sites
Conditions: protein concentration: 200 nM; construct: GST-DNA-binding domain
In short: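 Detection of bound protein used fluorescent anti-GST, with scans normalised by masliner. The proteins were GST-tagged yeast transcription factors applied at about 100-200 nM to universal all-10-mer Agilent arrays made double-stranded by primer extension. Each ungapped eight-base word, pooled with its reverse complement, was scored with an E-score from the Universal PBM Analysis Suite.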

UniProt P0CE41, sequence (P0CE41 whole entry): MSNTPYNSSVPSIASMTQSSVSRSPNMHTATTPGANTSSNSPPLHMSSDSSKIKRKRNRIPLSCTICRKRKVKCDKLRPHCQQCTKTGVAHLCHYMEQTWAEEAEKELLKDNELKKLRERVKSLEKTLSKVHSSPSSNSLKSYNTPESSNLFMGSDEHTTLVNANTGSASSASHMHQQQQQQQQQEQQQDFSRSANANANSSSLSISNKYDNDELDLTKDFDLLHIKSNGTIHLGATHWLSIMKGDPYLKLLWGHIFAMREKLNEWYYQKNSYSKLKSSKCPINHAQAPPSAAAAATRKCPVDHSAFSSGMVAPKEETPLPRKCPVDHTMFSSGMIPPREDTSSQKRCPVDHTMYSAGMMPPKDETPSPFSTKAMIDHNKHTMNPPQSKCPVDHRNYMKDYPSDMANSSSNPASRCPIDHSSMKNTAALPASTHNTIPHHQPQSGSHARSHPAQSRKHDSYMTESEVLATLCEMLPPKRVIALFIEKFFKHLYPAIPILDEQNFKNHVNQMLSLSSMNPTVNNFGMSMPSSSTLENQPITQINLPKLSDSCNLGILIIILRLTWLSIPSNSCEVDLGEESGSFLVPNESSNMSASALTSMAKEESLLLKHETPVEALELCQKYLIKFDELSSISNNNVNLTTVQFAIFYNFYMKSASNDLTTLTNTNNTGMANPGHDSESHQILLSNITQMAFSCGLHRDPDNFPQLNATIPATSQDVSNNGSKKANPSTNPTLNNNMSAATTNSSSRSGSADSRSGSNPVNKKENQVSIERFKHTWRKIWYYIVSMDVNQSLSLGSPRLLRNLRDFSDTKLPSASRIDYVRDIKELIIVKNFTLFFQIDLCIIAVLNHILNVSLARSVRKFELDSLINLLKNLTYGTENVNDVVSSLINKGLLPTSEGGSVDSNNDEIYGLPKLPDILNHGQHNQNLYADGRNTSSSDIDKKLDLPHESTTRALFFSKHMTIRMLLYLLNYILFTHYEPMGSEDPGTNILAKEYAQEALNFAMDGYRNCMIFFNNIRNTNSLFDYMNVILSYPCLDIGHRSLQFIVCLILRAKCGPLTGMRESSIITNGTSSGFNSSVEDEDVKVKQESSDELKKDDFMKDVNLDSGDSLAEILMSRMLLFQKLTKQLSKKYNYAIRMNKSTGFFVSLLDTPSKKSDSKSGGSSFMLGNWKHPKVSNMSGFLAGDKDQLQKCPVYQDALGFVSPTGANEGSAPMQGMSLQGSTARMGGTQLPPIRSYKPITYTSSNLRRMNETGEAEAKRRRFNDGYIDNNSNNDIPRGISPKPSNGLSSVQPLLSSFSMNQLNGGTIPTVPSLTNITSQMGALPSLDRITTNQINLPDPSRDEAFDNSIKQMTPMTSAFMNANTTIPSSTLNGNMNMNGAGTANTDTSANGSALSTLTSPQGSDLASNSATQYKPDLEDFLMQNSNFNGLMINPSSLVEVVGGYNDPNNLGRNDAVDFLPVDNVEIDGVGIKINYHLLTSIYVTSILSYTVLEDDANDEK

Sequence | PBM E-score
AAATGAGA | -0.243
ACACATTC | 0.00613
AGAGGGAA | -0.212
CCGCAACC | 0.132
AATCGTTG | -0.0336
CAGGTCAG | -0.178
GCAGGTCA | -0.162
AACCGGGT | 0.27
ACACAGAA | -0.148
AAGCAGCC | -0.0926
GGAAACGA | 0.0226
AACCGGTT | 0.322
AATGCCAT | 0.0424
TCCGCCGA | 0.425
AGAATTAA | -0.119
GTAATTAA | 0.00588
GGTATCTA | 0.22
CTAACGTA | -0.161
AGAGTGAC | -0.193
ACGCTCTC | -0.0369
TCATATGA | 0.112
ACGGCAAC | -0.0151
GATTATGC | 0.247
GATATAAA | 0.149
AAGAACCT | -0.202

Sequence | PBM E-score
CCCGAGCG | 0.354
ACAACTTG | -0.151
AGGCTTTC | -0.25
CGTTGAGA | -0.0696
CCTAATGA | -0.254
ACTATTGG | -0.169
CTATGTCA | -0.332
ACCCTTGC | 0.0089
ACACCACA | -0.0293
ACTGTATC | -0.0347
AACGCACC | -0.133
AAAAGGGG | -0.117
GGAAATAA | 0.413
ATCTTCGC | 0.0373
ATACAGTC | -0.143
ATGGAATG | 0.0898
ATAGGTGC | -0.0566
TCGTAGAA | -0.194
AGGCATAG | -0.0783
CATTACAG | -0.176
CCCCGGCA | 0.23
CGAGATAA | 0.164
GGGGTGTA | -0.0556
CGCCATCA | -0.161
CGGGTTAA | 0.359

Sequence | PBM E-score
AGCACCTA | -0.165
CATGACGG | -0.0378
AACAGAAC | -0.103
CACCTTAC | -0.192
AGGCTCTG | -0.324
TAGAAGGA | -0.134
ACACATGA | -0.286
ATTGATTC | 0.0698
ATAGCGTG | -0.0895
AAATGGTG | -0.0779
TCAACTGA | -0.109
AGGATAGC | 0.0089
ACCGTCTG | -0.0703
TATCCAGA | -0.0797
CCGGGCCG | 0.425
GTAGATAC | -0.208
CACCACTA | -0.0168
CGCAGTGA | -0.188
CAGGACCC | -0.0829
ATTGTAAC | -0.077
CCAGGACG | -0.11
GCAGGTCC | 0.0812
CCACGAAC | -0.0332
ACATGACG | -0.171
GAATCTAC | -0.147

Sequence | PBM E-score
ACCGTTCT | -0.0137
CTTAGTTC | 0.0195
AAGACGGC | -0.0121
GAGTGCAA | -0.0275
TCAAAGGA | -0.354
CGCAATGC | -0.159
ACCACAGT | -0.153
ATGTTATG | -0.107
GTATGGTA | -0.205
TATAGTCA | -0.307
CCAGACTC | -0.19
AAGCTGAG | -0.168
CTAAGAGA | -0.177
CGAGAACC | 0.102
CCCCTAGG | -0.286
GAGAGCAC | -0.0522
GACAGTAC | 0.141
GCAGAAAC | -0.155
AGATCGCG | 0.107
AAGTTACG | -0.0204
GACACGCA | -0.0242
ACTAAAAG | 0.0881
GCTAGATA | -0.0602
ATTTTTTC | 0.0514
ATATACTG | 0.0229

Sequence | PBM E-score
AGGCAAGC | -0.106
CCAAGTAG | -0.351
CCTGGTCG | 0.0252
CGAGATTC | 0.16
CTGGCTGC | -0.136
CGTCCCTA | -0.175
CATGATAC | -0.0314
CGAATGAA | -0.0129
CTTTTGCC | -0.0123
GGACAGCA | -0.00603
ATTTCCTG | -0.0599
GAGACCCC | 0.0314
AGACTTTG | -0.255
AGGGGGGG | -0.331
ACTGCTAG | -0.267
GATCAGTA | -0.0307
AATTTTGA | -0.0914
CCAAGGAA | -0.0481
CCCGTCGA | -0.00534
GATAAAAA | 0.0398
ACTATGGA | -0.119
AAAGTGTC | 0.0945
ATGAGAGG | -0.115
ATTCACAG | -0.182
ACGAAGAA | -0.0808

Sequence | PBM E-score
AGCCCGTA | 0.0737
AGAGCTTG | -0.334
GTACGATA | -0.189
AACGTTTA | -0.0796
GCCACTCC | 0.0842
ACGGAATA | 0.236
ACGCCGGA | 0.381
CCCGTCGC | 0.151
AAACACCC | 0.154
CAAAATTA | -0.0607
CCCCAAGG | -0.22
CTGCTTCA | -0.303
CCAACTGA | -0.324
CGTCATAA | -0.0381
AAACATGT | 0.0406
AAATCCAC | 0.0573
GTTGCACA | -0.32
GGGACAGA | -0.0679
GATTACAA | 0.103
ATTGGTCG | -0.0334
CGCGACGC | 0.0259
TCAAGCGA | 0.0133
CAAGACAC | -0.151
CCGGCGCA | 0.294
CGTACTCA | -0.0902

Sequence | PBM E-score
GGCTTGAC | -0.117
ACAATGAA | -0.165
CGCTGTGA | -0.17
AGCCGGTA | 0.414
CCCCCCAG | -0.32
AGAGCTCA | -0.191
ACCTCATA | -0.0658
ATGTGTAG | -0.0534
CTCGTGTA | -0.0874
GGAGGTAA | 0.258
GCGATCGC | 0.178
CAGGTGAC | -0.175
CGGTCCTC | 0.216
CGAAACTA | 0.0773
GGTCATGA | -0.0633
AGTGCAAT | -0.242
CCTCGCGC | 0.0438
CTCATAAA | -0.0862
ATACCTGA | -0.0737
CCTAGACA | -0.188
CGATTTGC | 0.0952
ATCTAGAG | -0.0788

— the supplement of paper PMC3334620
